Measurements as given in publication PMC12136788.
Some of the results follow.

T1: UNK ZnF1-6 (called full-length) (human, UniProt Q9C0B0 30-357)
T1 sequence: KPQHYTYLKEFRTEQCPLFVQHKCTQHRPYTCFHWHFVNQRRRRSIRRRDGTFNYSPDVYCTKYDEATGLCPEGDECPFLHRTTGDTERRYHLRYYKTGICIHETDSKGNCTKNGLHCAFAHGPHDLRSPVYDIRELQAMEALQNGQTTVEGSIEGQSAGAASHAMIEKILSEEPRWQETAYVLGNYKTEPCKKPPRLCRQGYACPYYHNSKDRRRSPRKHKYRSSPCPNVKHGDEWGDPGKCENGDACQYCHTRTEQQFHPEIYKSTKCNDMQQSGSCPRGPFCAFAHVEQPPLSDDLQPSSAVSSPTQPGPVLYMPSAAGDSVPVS

B1: ENSG00000109332:stop:overlap|stop_codon|ENSG00000109332|stop_codon|NA|stop_codon (ssRNA)
RNA: GGGAGUUCUACAGUCCGACGAUCCAGACAGAGAUAAGUACAAUAGGUUAGCAAGAGAGUGGACAGAGAAAUACGCUAUGUUGUAGGGUACAACAGAAUAUCUCGGGAAUGGACUCAGAAGUAUGCCAUGUGAUGCUACCUUAACAACAGAGGAUUGAGCAUCA
B2: chr1:154944474:154944574:-|3pUTR|ENSG00000163346|msi1_unk|total|mutant (ssRNA)
RNA: GGGAGUUCUACAGUCCGACGAUCUCGAGGCCCAGCACGAGGACUUACCCUGGGGUUUUGUCCGGUUUGGAAGCAGCUGUCCCCCGGGGGUGAAGUCCCCCCCCUUUUUUUUUUUACCCCUGCUUCUCCCACGGCUUCACCUCCCAACAGAGGAUUGAGCAUCA
B3: ENSG00000124766:be:win_1601|3pUTR|ENSG00000124766|bound_else_gene|NA|bound_elsewhere_windowed (ssRNA)
RNA: GGGAGUUCUACAGUCCGACGAUCCGUUUUGGACCCGCGCUCCCAUCCCCCACCUUCCCGGGCCGGGGACCCACUCUGCCCAGCCGGAGGGACGCGGAGGAGGAAGAGGGUAGACAGGGGCGACCUGUGAUUGUUGUUAUUGAUCAACAGAGGAUUGAGCAUCA
B4: ENSG00000115641:stop:overlap|stop_codon|ENSG00000115641|stop_codon|NA|stop_codon (ssRNA)
RNA: GGGAGUUCUACAGUCCGACGAUCCCAUCGGCUGUGACUGCAAGGUACCUGCUGCGGGCCUCUGCGGGUCCCCGGCGCUCCCCUAGGAAACACGGGUUUCUCUGUGGUUUGUGCUGAAGCCCUGAUCCACCACUGAAGUCUGUCCAACAGAGGAUUGAGCAUCA
B5: chr1:151249111:151249212:+|3pUTR|ENSG00000143398|unk|total|mutant (ssRNA)
RNA: GGGAGUUCUACAGUCCGACGAUCGCAGAUUGUUGAAUUCCUGUUCUAUCCCUUCUCUAUCCCACCCUGCCUUGAUAAUAUGUCCGCCCAUACCCCAAAUAACUGUCUAUAUCCGACACCCCCAGCCAGUUUCUGGCUGCCUGUCAACAGAGGAUUGAGCAUCA
B6: chr15:91915990:91916091:+|CDS|ENSG00000176463|msi1|FALSE|unique (ssRNA)
RNA: GGGAGUUCUACAGUCCGACGAUCGUCCUGACCACCCUGGAGCGUAGGUUCAACCUGCAGAGCGCUGACGUGGGUGUGAUCGCUAGCAGCUUCGAGAUCGGGAACCUGGCGCUCAUCCUCUUCGUGAGCUACUUCGGGGCACGCCAACAGAGGAUUGAGCAUCA
B7: chr20:63933867:63933968:+|3pUTR|ENSG00000101152|msi1|total|mutant (ssRNA)
RNA: GGGAGUUCUACAGUCCGACGAUCAUCAGAGUGGGCCCCUUGCCAGGUGGCUUUUCAGUUACAGAGUCCAGUGGACCAUUUUGCCGAACCAUGCAGCUCCCUGCGGAAGGUGGGGCCGGGUGGGAAAGAGGAGCAGGUCUGGAGCAACAGAGGAUUGAGCAUCA
B8: chr3:186538440:186538695:-|three_prime_utr|ENSG00000213139|control|control|control (ssRNA)
RNA: GGGAGUUCUACAGUCCGACGAUCACAUGAAUGGGGCCAUAUUCUUCCUGGGGCCCAAAUGCUGGCUGGCCUUGUGGUCCAAAUAGGCAUCAUCAAUAAAACAGUUGGCAUGCAUCCCACUGCUGACUAUAAUGCCUCUCCUUACAACAGAGGAUUGAGCAUCA
B9: ENSG00000136451:be:win_2801|3pUTR|ENSG00000136451|bound_else_gene|NA|bound_elsewhere_windowed (ssRNA)
RNA: GGGAGUUCUACAGUCCGACGAUCAGCAAUGAUUAUGCACGUUGAGACAUGUGCUUUUUAUUUCUUAGCAAGAUAUUUUAUCUCUGUACAUAAAGUAGAAACCAAAAGCUAGGGAAACAGAUACUCUUUACACCAUCAUGCCACCAACAGAGGAUUGAGCAUCA
B10: ENSG00000168297:stop:overlap|stop_codon|ENSG00000168297|stop_codon|NA|stop_codon (ssRNA)
RNA: GGGAGUUCUACAGUCCGACGAUCCUGGGGCCAGCUCACCUCUCACGUCCCCGUCAUCGCCAACUCCACCCUCUACAUCAGGUUAGUGAUGGAGUAAAGUGACAUGCCACCUUCCUGUCCGCCAACAGGAGGAGCGGGCUGUGCCAACAGAGGAUUGAGCAUCA
B11: chr9:116699486:116699595:+|CDS|ENSG00000119401|unk|total|mutant (ssRNA)
RNA: GGGAGUUCUACAGUCCGACGAUCUUCCGCUGCAUUGCUGGCAUGUGUGUGGAUGCUCGUGGUGAUCUCAUCGUGGCUGACAGCCGUCGCAAGGAAAUUCUCCAUUUUCCUAAGGGUGGGGGCUACCGUGUCCUUAUUCGAGAGCAACAGAGGAUUGAGCAUCA
B12: chr3:25596636:25596694:+|3pUTR|ENSG00000077092|msi1_unk|total|mutant (ssRNA)
RNA: GGGAGUUCUACAGUCCGACGAUCUCCCCAGUACCUUCAGUUCCAGGAUUUAAAAUGCAAGAAAAAACAUUUUUACUGCUGCUCCGUUUUUGGACUGAAAAGAUAUUAAAACUCAAGAAGGACCAAGAAGUUUUCAUAUGUAUCCAACAGAGGAUUGAGCAUCA
B13: chr17:67854386:67854487:+|CDS|ENSG00000171634|unk|total|mutant (ssRNA)
RNA: GGGAGUUCUACAGUCCGACGAUCAGAGGCAGAGGACUACCCAUAUGGACCAGCCGAGAACAAGAUCAAAGUUCUACAGUUUCCCGUCGAUCAGUUUCUUACAACAAAUAUUGCUCGAGAGGAAUUGAUGUCUGAAGGGGUGAUCAACAGAGGAUUGAGCAUCA
B14: ENSG00000136451:be:win_1601|3pUTR|ENSG00000136451|bound_else_gene|NA|bound_elsewhere_windowed (ssRNA)
RNA: GGGAGUUCUACAGUCCGACGAUCAAUAUUUACCAGCAACUUAACUUUUAGUUGAUUAAAGCAAAAAGUAAACCAUGAAAUUGGGAGAUUUUAUUACAUUAGUUAAUAAGAGUGUGGUAGCAUUUUUCUCCAAUUUGGCUGGGACAACAGAGGAUUGAGCAUCA
B15: chr2:32415436:32415554:+|CDS|ENSG00000115760|unk|total|mutant (ssRNA)
RNA: GGGAGUUCUACAGUCCGACGAUCUGGGACUUUGGUUCAGUGCUUGAGGCUGCCAAAGUUUGCAGAGGAGGAGAAUCUUUGUACCGACUCAAUAACUCCUUGUGCUGACGGAAUUCAUUUGUUGGCCGGACUGCGGACAUGCCCCAACAGAGGAUUGAGCAUCA
B16: chr1:205434884:205440924:-|three_prime_utr|ENSG00000281406|control|control|control (ssRNA)
RNA: GGGAGUUCUACAGUCCGACGAUCUGCCUGCUUCUGGCUGGGGCUUGGAGCAGGAAGCCGUGUGUGUAUCUUAAGUCUUGAUUUAGCCAGUGCUCUUCUCAGCCUGACUCUCACCCGAGGGCAUCAGCCUCCUGUGUGCCUCUCCAACAGAGGAUUGAGCAUCA
B17: chr1:20111938:20114255:-|three_prime_utr|ENSG00000117215|control|control|control (ssRNA)
RNA: GGGAGUUCUACAGUCCGACGAUCACCAGAAGCGACUGCGUUUCUACUGGCGGCCCCACUGCCGGGGGCAGACCCCUGGGUGCUAGAAGCCCACACCCUCUACCCUGUUCCUCAGCAUGGAGCUCUGGCAUCCCCACCUCAGUACAACAGAGGAUUGAGCAUCA
B18: chr10:43184366:43184487:+|3pUTR|ENSG00000169826|unk|total|mutant (ssRNA)
RNA: GGGAGUUCUACAGUCCGACGAUCCCGUUUAUUUGAGCCAGCUCUAUCAGGGUCUUCCCAUGGUGGUUCAGAACCGAUGAGCACCGCAUGGUUUUGUUUGUUUUUGCUUUCAAUUUUCUAAUUUGGCAUGGAUCCAUAUGUAUUCAACAGAGGAUUGAGCAUCA
B19: chr4:17704999:17705206:-|CDS|ENSG00000047662|control|control|control (ssRNA)
RNA: GGGAGUUCUACAGUCCGACGAUCAAUCAAACAUCAGACAGAAGAGGAGAAGAAACAUCUCAAAGACCAGCUAGUGAAGCGACUAGAAGACUUGGUAAAGAAGCACACCGUGGAAAUCAAAUCCGUUCGCUCGUCCGUGGAGGCCAACAGAGGAUUGAGCAUCA
B20: ENSG00000120451:stop:overlap|stop_codon|ENSG00000120451|stop_codon|NA|stop_codon (ssRNA)
RNA: GGGAGUUCUACAGUCCGACGAUCCUGCUACCACCUCUGCCUCAGAUACCCCAGGCAACUCUAAGAGGAUGGGUGUCUCCUCUUAGCUGGUUAUUCACGCCUUCUUCCCAGGUCAGGGAAGUAGAGUUACUCGGCCACCAGAGACAACAGAGGAUUGAGCAUCA
B21: chr2:120222042:120222143:-|CDS|ENSG00000226479|msi1|total|mutant (ssRNA)
RNA: GGGAGUUCUACAGUCCGACGAUCGAAAUUUUCCCAUUUUUAAGAGAAUAUGGGAACAUUUCAUAUGAUCUCCAUCACGAAGACCGUGAAGAUGCUGAAGAAACAUCAGUUCCAGAAGCUCCGAAAAUUGCUCCAAUAUUUGGACAACAGAGGAUUGAGCAUCA
B22: chr14:53038166:53038268:-|3pUTR|ENSG00000100523|unk|FALSE|unique (ssRNA)
RNA: GGGAGUUCUACAGUCCGACGAUCGAGCUUUUGGCAGAGUCUUCGGGGUUUUCUAGGUAUAAAAUCAUAUCAGCGAAGAGAGCUAGUUUGAUUUCUUUUCCCAGUUGGAUGCCUUUUAUUUAUUUCUCUUGCCUGAUUGCUCUACAACAGAGGAUUGAGCAUCA

Molecular target: T1, UNK ZnF1-6 (called full-length)
Test: nsRBNS (natural sequence RNA bind-n-seq); RBNS binding buffer (assumed for nsRBNS): 25 mM Tris pH 7.5, 150 mM KCl, 3 mM MgCl2, 0.01% Triton X-100, 500 ug/ml BSA, 20 U/ml SUPERase-In, 4 C; UNK is unkempt and MSI1 is Musashi-1; names of the RNAs are library labels; protein concentration not given here; high values mean tight binding

Binder | binding signal [enrichment R]
B1 | 0.951
B2 | 1.24
B3 | 0.94
B4 | 0.517
B5 | 1.46
B6 | 0.855
B7 | 1.03
B8 | 0.697
B9 | 0.638
B10 | 1.05
B11 | 0.747
B12 | 0.36
B13 | 0.506
B14 | 0.712
B15 | 0.831
B16 | 0.745
B17 | 0.813
B18 | 1.2
B19 | 0.563
B20 | 0.576
B21 | 0.129
B22 | 0.751
